Test results reported in PubChem BioAssay (Tox21).
“And” between values parts separate entries of the source, which are not always exact repeats. Identical values can stand only once. The inconclusive results got no clear call from the source; some entries with a clear call stand among them for comparison. Potencies beside an inconclusive call are fits to weak or partial responses and may not hold up. The source holds several records for some structures; these can differ, active in one and inactive in another. The source made the active and inactive calls. Calls come from the whole dose curve; as a rule, active = well fitted inhibition curve with a large enough effect in the repeat runs; inconclusive = weak or mixed curves; inactive = no such curve, though single readings can be large or run the other way.

target: Cytochrome P450 1A2 (Homo sapiens) (UniProt P05177); experiment: Cytochrome P450 Family 1 Subfamily A Member 2 (CYP1A2) small molecule antagonists: luciferase reporter qHTS assay (AID 1671199); conditions: P450-Glo CYP1A2 enzyme, luciferin luminescence, 1 h; series mostly up to 115 µM; note: nearly all actives have a fitted effect of over 50% in size
UniProt P05177, sequence (P05177 whole entry, looked up): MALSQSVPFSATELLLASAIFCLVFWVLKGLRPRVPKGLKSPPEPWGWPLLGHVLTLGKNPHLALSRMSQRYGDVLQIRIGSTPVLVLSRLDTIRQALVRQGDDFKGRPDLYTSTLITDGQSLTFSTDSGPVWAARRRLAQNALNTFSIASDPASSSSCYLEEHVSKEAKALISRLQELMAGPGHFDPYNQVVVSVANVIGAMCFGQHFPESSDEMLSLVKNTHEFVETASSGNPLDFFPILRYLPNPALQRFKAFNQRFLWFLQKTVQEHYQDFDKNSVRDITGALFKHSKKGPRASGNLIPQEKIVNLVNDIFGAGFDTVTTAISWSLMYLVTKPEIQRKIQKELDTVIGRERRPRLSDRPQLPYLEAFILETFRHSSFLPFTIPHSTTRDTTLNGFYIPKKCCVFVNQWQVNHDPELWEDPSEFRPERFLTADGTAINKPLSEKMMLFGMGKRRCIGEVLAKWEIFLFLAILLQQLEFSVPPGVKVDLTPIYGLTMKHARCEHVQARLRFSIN
Procedure, shortened: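 Enzymatic CYP1A2 assay, human, luminescent: 10 min compound–enzyme–substrate preincubation, 1 h NADPH-dependent turnover, 20 min detection step, room temperature throughout. Reduced light indicates lower CYP1A2 activity.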
Potency is the fitted concentration of half-maximal effect; tags give direction and shape of the fitted curve.

Structure (SMILES) | Potency
O=C(O)Cc1ccc(Cl)cc1Cl | inactive
C=CCCCCCCCCCCCCCC | inconclusive: 16.6 µM [inhibitor, partial curve]
O=C(O)c1cc2ccccc2nc1C(=O)O | inconclusive: 35.6 µM [inhibitor, partial curve]
CS(=O)(=O)c1ccc([C@@H](O)[C@@H](CF)NC(=O)C(Cl)Cl)cc1 | inactive
COc1ccc(CCO)cc1 | active: 63.3 µM
O=Cc1ccc(C(=O)O)cc1 | inactive
Cc1cccn2c(=O)c(-c3nnn[nH]3)cnc12 | inconclusive: 12 µM [inhibitor, partial curve, poor fit]
CCCCCCCCCCCCCCCCCC(=O)OCC(CC)CCCC (configuration not stated) | inconclusive: 63.3 µM [inhibitor, partial curve]
CC(=O)Oc1cccc(O)c1 | inconclusive: 34.7 µM [inhibitor, partial curve]
Cc1ccc(OC(=O)CC(C)C)cc1 | inconclusive: 71 µM [inhibitor, partial curve, poor fit]
CC(=O)C(=O)CC(C)C | inconclusive: 39.7 µM [inhibitor, partial curve]
C=C1C2CCC(C2)C1(C)C (configuration not stated) | inactive and active: 39.9 µM
CCCCCCCCc1ccc(S(=O)(=O)O)cc1 | inactive
NC1CCCCC1 | active: 40.2 µM and inactive
NC/C=C/C(=O)O | inactive
O=S1(=O)OC(c2ccc(O)cc2)(c2ccc(O)cc2)c2ccccc21 | inconclusive: 24.5 µM [inhibitor, partial curve]
COCC(C)N (configuration not stated) | inconclusive: 17.4 µM [inhibitor, full curve, poor fit]
CC(CC=O)c1ccccc1 (configuration not stated) | inconclusive: 50.2 µM [inhibitor, partial curve, poor fit]
CCCCCCCC/C=C\CCCCCCCCN | active: 12.9 µM
CC(C)COC(=O)C(C)C | inconclusive: 79.7 µM [inhibitor, partial curve, poor fit]
CCN(CC)CCNC(=O)c1cc(Cl)c(N)cc1OC | inactive
COC(=O)Nc1nc2ccc(Sc3ccccc3)cc2[nH]1 | inconclusive: 11.5 µM [inhibitor, full curve]
O=C1CCCc2c1cc1ccc3cccc4ccc2c1c34 | active: 0.321 µM
CCCCCC(C)OC(=O)COc1ccc(Cl)c2cccnc12 (configuration not stated) | active: 5.03 µM
CC(C)(C)CC(C)(C)c1ccc(Nc2ccc(C(C)(C)CC(C)(C)C)cc2)cc1 | inconclusive: 2.78 µM [inhibitor, partial curve, poor fit]
CCC(C)(CCC(C)C)C(=O)[O][Sn]([CH3])([CH3])[O]C(=O)C(C)(CC)CCC(C)C (configuration not stated) | inconclusive: 71 µM [inhibitor, partial curve]
CCCCCCCCCCCCCCCCCC(=O)OCCCCCCCCCCCCCC(C)C | inactive
